Measurements taken from patent publication US11542311B2, “Fusion protein, preparation method therefor and application thereof in preparing ophthalmic disease treatment, anti-inflammation and anti-tumor medicament” (JIANGSU RONGTAI BIOTECH CO., LTD., priority 2017, dated 2023).

Assays:
[1] = system: gastric cancer cell MGC-803; test: MTT assay, proliferation of gastric cancer cell MGC-803; assay type: cell-based; conditions: 48 h
Method: (§1) The MTT assay was used to detect the inhibitory effect of the integrin blocker fusion protein obtained in Example 1 on the proliferation of various tumor cells, including melanoma cell B16F10, gastric cancer cell MGC-803, lung cancer cell A549, liver cancer cell Hep-G2, breast cancer cell MDA-MB-231, colon cancer cell HCT-116, human glioma U87, and cervical cancer cell Hela.
(§2) The tumor cells were cultured in a 5% CO2 incubator at 37° C. to a density of 90% or more, and collected by trypsinization. The cells were resuspended in the culture liquid and counted under a microscope. The cell concentration was adjusted to 3.0×10^4 cells/mL. The cell suspension was inoculated into a 96-well plate, 100 μL per well, and cultured overnight in a 5% CO2 incubator at 37° C. The fusion proteins I, II, and the positive drug Taxol were diluted with the culture liquid to respective predetermined concentrations. After the cells were fully adhered, each dilution was added to a 96-well plate, 100 μL per well, respectively. The integrin blocker fusion proteins I and II were added as an administration group, Taxol was used as a positive control group, and the culture liquid without any drug was used as a blank control group, and incubated in an 5% CO2 incubator at 37° C. for 48 hours. 20 μL of 5 mg/mL MTT was added to each well of a 96-well plate, and incubation was continued for 4 hours. The medium was aspirated and 100 μL of DMSO per well were added to dissolve. The absorbance was measured at 570 nm with a microplate reader with a reference wavelength of 630 nm, and the proliferation inhibition (PI) was calculated. The formula is as follows: […]
(§3) where Ntest is the OD value of the test group and Ncontrol is the OD value of the blank control group.
(§4) The test was repeated 5 times independently. The results obtained from the test were calculated as mean±SD, and statistical t-test was performed. P<0.05 was considered as significant difference, and P<0.01 was considered as an extremely significant difference.

[2] = system: cervical cancer cell Hela; test: MTT assay, proliferation of cervical cancer cell Hela; assay type: cell-based; conditions: 48 h
Method: as §1, §2, §3, §4

[3] = system: iris neovascularization in rabbits; test: Iris neovascularization in rabbits; assay type: in vivo; conditions: rabbit NVI model; 128 μg intravitreal once every 7 days for 2 weeks; third week
lung cancer cell A549 = test: MTT assay, proliferation of lung cancer cell A549; assay type: cell-based; conditions: 48 h
Method: as §1, §2, §3, §4

[4] = system: xylene-induced ear swelling in mice; test: Xylene-induced ear swelling in mice; assay type: in vivo, Kunming mice; conditions: for PI (%): ear swelling, mice; for Swelling degree: mouse ear, 2 h after xylene
Method: 80 Kunming mice were divided into 8 groups with 10 mice for each group and numbered. A physiological saline group was used as a blank control group, an aspirin group (200 mg/kg) was used as a positive control group, and fusion proteins I and II at high, medium and low doses (128, 32, 8 mg/kg) was used as the experimental groups. Mice were administered once by injection every 5 days. The blank control group was given an equal volume of physiological saline. On the fifth day after the administration, 0.05 mL of xylene was applied to both sides of the right ears of the mice to induce inflammation, and the left ears were not applied and were normal ears. After 2 h, the mice were sacrificed by dislocation, and the ears were cut along the auricle. Ear pieces were taken with a puncher and weighed, and the swelling degree and swelling rate were calculated. Swelling degree=right ear piece weight-left ear piece weight, swelling rate=(swelling degree/left ear piece weight)×100%.

tampon granuloma in rat = test: Subacute inflammation of tampon granuloma in rat; conditions: 64 mg/kg by injection every 5 days, day 7
[5] = system: neovascularization in premature rat retinopathy model; test: Neovascularization in premature rat retinopathy model (oxygen-induced); assay type: in vivo; conditions: neonatal rat, 100 μg intravitreal day 7, day 14
[6] = system: breast cancer cell MDA-MB-231; test: MTT assay, proliferation of breast cancer cell MDA-MB-231; assay type: cell-based; conditions: 48 h
Method: as §1, §2, §3, §4

B1: Protein I: Fc fusion protein Fc-IL4DM-HM3: IgG1-Fc, IL-4 and HM-3 joined by flexible (F) linker; SEQ ID NO: 1 (protein)
chain: [gap - human IgG1 Fc]GGGGSGGGGSGGGGSHKCDITLQEIIKTLNSLTEQKTLCTELTVTDIFAASKNTTEKETFCRAATVLRQFYSHHEKDTRCLGATAQQFHRHKQLIRFLKRLDRNLWGLAGLNSCPVKEANQSTLENFLERLKTIMDEKDSKCSSGGGGSGGGGSGGGGSIVRRADRAAVPGGGGRGD
A570 nm/A630 nm ([1]; 1 μg/mL): 0.8701 ± 0.0456 | PI (%) ([1]; 1 μg/mL): 8.92% | A570 nm/A630 nm ([1]; 2 μg/mL): 0.8301 ± 0.0343 | PI (%) ([1]; 2 μg/mL): 13.11% | A570 nm/A630 nm ([1]; 4 μg/mL): 0.7531 ± 0.0236 | PI (%) ([1]; 4 μg/mL): 21.17% | A570 nm/A630 nm ([1]; 8 μg/mL): 0.6859 ± 0.0395 | PI (%) ([1]; 8 μg/mL): 28.20% | A570 nm/A630 nm ([1]; 16 μg/mL): 0.5692 ± 0.0222 | PI (%) ([1]; 16 μg/mL): 40.42% | A570 nm/A630 nm ([1]; 32 μg/mL): 0.4365 ± 0.0239 | PI (%) ([1]; 32 μg/mL): 54.31% | A570 nm/A630 nm ([1]; 64 μg/mL): 0.3068 ± 0.0398 | PI (%) ([1]; 64 μg/mL): 67.88% | A570 nm/A630 nm ([1]; 128 μg/mL): 0.1696 ± 0.0431 | PI (%) ([1]; 128 μg/mL): 82.25% | A570 nm/A630 nm ([1]; 256 μg/mL): 0.0945 ± 0.0249 | PI (%) ([1]; 256 μg/mL): 90.11% | A570 nm/A630 nm ([2]; 1 μg/mL): 1.1729 ± 0.0183 | PI (%) ([2]; 1 μg/mL): 8.28% | A570 nm/A630 nm ([2]; 2 μg/mL): 1.0658 ± 0.0295 | PI (%) ([2]; 2 μg/mL): 16.66% | A570 nm/A630 nm ([2]; 4 μg/mL): 0.9739 ± 0.0238 | PI (%) ([2]; 4 μg/mL): 23.84% | A570 nm/A630 nm ([2]; 8 μg/mL): 0.9526 ± 0.0166 | PI (%) ([2]; 8 μg/mL): 25.51% | A570 nm/A630 nm ([2]; 16 μg/mL): 0.8248 ± 0.0105 | PI (%) ([2]; 16 μg/mL): 35.50% | A570 nm/A630 nm ([2]; 32 μg/mL): 0.7109 ± 0.0119 | PI (%) ([2]; 32 μg/mL): 44.41% | A570 nm/A630 nm ([2]; 64 μg/mL): 0.5643 ± 0.0265 | PI (%) ([2]; 64 μg/mL): 55.87% | A570 nm/A630 nm ([2]; 128 μg/mL): 0.3629 ± 0.0215 | PI (%) ([2]; 128 μg/mL): 71.62% | A570 nm/A630 nm ([2]; 256 μg/mL): 0.1461 ± 0.0350 | PI (%) ([2]; 256 μg/mL): 88.58% | iris neovascularization (optical and electron microscope) [3]: could inhibit neovascularization and regress the formed blood vessels | A570 nm/A630 nm (lung cancer cell A549; 1 μg/mL): 0.6466 ± 0.0503 | PI (%) (lung cancer cell A549; 1 μg/mL): 4.14% | A570 nm/A630 nm (lung cancer cell A549; 2 μg/mL): 0.5947 ± 0.0173 | PI (%) (lung cancer cell A549; 2 μg/mL): 11.83% | A570 nm/A630 nm (lung cancer cell A549; 4 μg/mL): 0.5603 ± 0.0416 | PI (%) (lung cancer cell A549; 4 μg/mL): 16.93% | A570 nm/A630 nm (lung cancer cell A549; 8 μg/mL): 0.5225 ± 0.0293 | PI (%) (lung cancer cell A549; 8 μg/mL): 22.54% | A570 nm/A630 nm (lung cancer cell A549; 16 μg/mL): 0.4866 ± 0.0299 | PI (%) (lung cancer cell A549; 16 μg/mL): 27.86% | A570 nm/A630 nm (lung cancer cell A549; 32 μg/mL): 0.4395 ± 0.0124 | PI (%) (lung cancer cell A549; 32 μg/mL): 34.84% | A570 nm/A630 nm (lung cancer cell A549; 64 μg/mL): 0.3837 ± 0.0396 | PI (%) (lung cancer cell A549; 64 μg/mL): 43.11% | A570 nm/A630 nm (lung cancer cell A549; 128 μg/mL): 0.3263 ± 0.0218 | PI (%) (lung cancer cell A549; 128 μg/mL): 51.62% | A570 nm/A630 nm (lung cancer cell A549; 256 μg/mL): 0.2609 ± 0.0265 | PI (%) (lung cancer cell A549; 256 μg/mL): 61.32% | PI (%) ([4]; 8 mg/kg): 7.21% | PI (%) ([4]; 32 mg/kg): 21.77% | PI (%) ([4]; 128 mg/kg): 37.09% | Swelling degree ([4]; 8 mg/kg): 6.18 ± 0.20 mg | Swelling degree ([4]; 32 mg/kg): 5.21 ± 0.31 mg | Swelling degree ([4]; 128 mg/kg): 4.19 ± 0.28 mg | Granuloma (mg)/Weight (100 g) (tampon granuloma in rat): 0.37 ± 0.09 mg/100 g | PI (%) (tampon granuloma in rat; granuloma): 19.57% | Nucleus number of vascular endothelial cells [5]: 6.693 ± 2.109 | Nucleus number of vascular endothelial cells ([5]; listed as fusion protein I): 6.693±2.109 | A570 nm/A630 nm ([6]; 1 μg/mL): 0.8133 ± 0.0262 | PI (%) ([6]; 1 μg/mL): 5.77% | A570 nm/A630 nm ([6]; 2 μg/mL): 0.7992 ± 0.0250 | PI (%) ([6]; 2 μg/mL): 7.40% | A570 nm/A630 nm ([6]; 4 μg/mL): 0.7798 ± 0.0409 | PI (%) ([6]; 4 μg/mL): 9.65% | A570 nm/A630 nm ([6]; 8 μg/mL): 0.7371 ± 0.0378 | PI (%) ([6]; 8 μg/mL): 14.60% | A570 nm/A630 nm ([6]; 16 μg/mL): 0.6706 ± 0.0185 | PI (%) ([6]; 16 μg/mL): 22.30% | A570 nm/A630 nm ([6]; 32 μg/mL): 0.6109 ± 0.0130 | PI (%) ([6]; 32 μg/mL): 29.22% | A570 nm/A630 nm ([6]; 64 μg/mL): 0.5499 ± 0.0186 | PI (%) ([6]; 64 μg/mL): 36.29% | A570 nm/A630 nm ([6]; 128 μg/mL): 0.4982 ± 0.0326 | PI (%) ([6]; 128 μg/mL): 42.28% | A570 nm/A630 nm ([6]; 256 μg/mL): 0.4410 ± 0.0171 | PI (%) ([6]; 256 μg/mL): 48.91%
